# In the supplement of paper PMC8728848:
# Some of the results follow.
# Key:
# Assay in all cases: glycan array binding signal (z-score within array); higher = stronger binding
# Conditions in all cases: glycan notation: IUPAC condensed, linker removed
# [1] = target: Gal(b1-4)GlcNAc(b1-3)Gal(b1-4)GlcNAc(b1-3)Gal(b1-4)GlcNAc(b1-3)Gal(b1-4)GlcNAc(b1-2)Man(a1-3)[Gal(b1-4)GlcNAc(b1-3)Gal(b1-4)GlcNAc(b1-3)Gal(b1-4)GlcNAc(b1-3)Gal(b1-4)GlcNAc(b1-2)Man(a1-6)]Man(b1-4)GlcNAc(b1-4)[Fuc(a1-6)]GlcNAc
# In short: (§1)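 Glycan array binding is given as a within-array Z-score, which can be read as non-binding when negative. The arrays, 3228 of them, came from the Consortium for Functional Glycomics database and were retained only where the protein sequence was available. Z-scores were averaged across arrays of the same protein sequence at different concentrations or buffers and across linkers.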
# [2] = target: Gal(b1-4)GlcNAc(b1-3)Gal(b1-4)GlcNAc(b1-3)Gal(b1-4)GlcNAc(b1-3)Gal(b1-4)GlcNAc(b1-2)[Gal(b1-4)GlcNAc(b1-3)Gal(b1-4)GlcNAc(b1-3)Gal(b1-4)GlcNAc(b1-3)Gal(b1-4)GlcNAc(b1-6)]Man(a1-6)[Gal(b1-4)GlcNAc(b1-3)Gal(b1-4)GlcNAc(b1-3)Gal(b1-4)GlcNAc(b1-3)Gal(b1-4)GlcNAc(b1-2)Man(a1-3)]Man(b1-4)GlcNAc(b1-4)[Fuc(a1-6)]GlcNAc
# In short: as §1
# [3] = target: Gal(b1-4)GlcNAc(b1-3)Gal(b1-4)GlcNAc(b1-3)Gal(b1-4)GlcNAc(b1-3)Gal(b1-4)GlcNAc(b1-3)Gal(b1-4)GlcNAc(b1-2)Man(a1-3)[Gal(b1-4)GlcNAc(b1-3)Gal(b1-4)GlcNAc(b1-3)Gal(b1-4)GlcNAc(b1-3)Gal(b1-4)GlcNAc(b1-3)Gal(b1-4)GlcNAc(b1-2)Man(a1-6)]Man(b1-4)GlcNAc(b1-4)GlcNAc
# In short: as §1
# [4] = target: Gal(b1-4)GlcNAc(b1-3)Gal(b1-4)GlcNAc(b1-3)Gal(b1-4)GlcNAc(b1-3)Gal(b1-4)GlcNAc(b1-3)Gal(b1-4)GlcNAc(b1-2)Man(a1-3)[Gal(b1-4)GlcNAc(b1-3)Gal(b1-4)GlcNAc(b1-3)Gal(b1-4)GlcNAc(b1-3)Gal(b1-4)GlcNAc(b1-3)Gal(b1-4)GlcNAc(b1-2)Man(a1-6)]Man(b1-4)GlcNAc(b1-4)[Fuc(a1-6)]GlcNAc
# In short: as §1
# [5] = target: Gal(b1-4)GlcNAc(b1-3)Gal(b1-4)GlcNAc(b1-3)Gal(b1-4)GlcNAc(b1-3)Gal(b1-4)GlcNAc(b1-3)Gal(b1-4)GlcNAc(b1-2)[Gal(b1-4)GlcNAc(b1-3)Gal(b1-4)GlcNAc(b1-3)Gal(b1-4)GlcNAc(b1-3)Gal(b1-4)GlcNAc(b1-3)Gal(b1-4)GlcNAc(b1-6)]Man(a1-6)[Gal(b1-4)GlcNAc(b1-3)Gal(b1-4)GlcNAc(b1-3)Gal(b1-4)GlcNAc(b1-3)Gal(b1-4)GlcNAc(b1-3)Gal(b1-4)GlcNAc(b1-2)Man(a1-3)]Man(b1-4)GlcNAc(b1-4)[Fuc(a1-6)]GlcNAc
# In short: as §1
# [6] = target: Gal(b1-4)GlcNAc(b1-3)Gal(b1-4)GlcNAc(b1-3)Gal(b1-4)GlcNAc(b1-3)Gal(b1-4)GlcNAc(b1-3)Gal(b1-4)GlcNAc(b1-3)Gal(b1-4)GlcNAc(b1-2)Man(a1-3)[Gal(b1-4)GlcNAc(b1-3)Gal(b1-4)GlcNAc(b1-3)Gal(b1-4)GlcNAc(b1-3)Gal(b1-4)GlcNAc(b1-3)Gal(b1-4)GlcNAc(b1-3)Gal(b1-4)GlcNAc(b1-2)Man(a1-6)]Man(b1-4)GlcNAc(b1-4)GlcNAc
# In short: as §1
# [7] = target: Gal(b1-4)GlcNAc(b1-3)Gal(b1-4)GlcNAc(b1-3)GalNAc
# In short: as §1
# [8] = target: Gal(b1-4)GlcNAc(b1-3)Gal(b1-4)GlcNAc(b1-3)[Gal(b1-4)GlcNAc(b1-3)Gal(b1-4)GlcNAc(b1-6)]GalNAc
# In short: as §1
# [9] = target: Gal(b1-4)GlcNAc(b1-3)Gal(b1-4)GlcNAc(b1-6)[Gal(b1-3)]GalNAc
# In short: as §1
# [10] = target: Gal(b1-4)GlcNAc(b1-3)Gal(b1-4)[Fuc(a1-3)]GlcNAc(b1-3)Gal(b1-4)[Fuc(a1-3)]GlcNAc
# In short: as §1
# [11] = target: Gal(b1-4)GlcNAc(b1-3)GalNAc
# In short: as §1
# [12] = target: Gal(b1-4)GlcNAc(b1-3)[Fuc(a1-3)GlcNAc(b1-6)]Gal(b1-4)Glc
# In short: as §1
# [13] = target: Gal(b1-4)GlcNAc(b1-3)[Gal(b1-4)GlcNAc(b1-6)]Gal(b1-4)GlcNAc
# In short: as §1
# [14] = target: Gal(b1-4)GlcNAc(b1-3)[GlcNAc(b1-6)]Gal(b1-4)GlcNAc
# In short: as §1
# [15] = target: Gal(b1-4)GlcNAc(b1-6)Gal(b1-4)GlcNAc
# In short: as §1
# [16] = target: Gal(b1-4)GlcNAc(b1-6)GalNAc
# In short: as §1
# [17] = target: Gal(b1-4)GlcNAc(b1-6)[Gal(b1-3)]GalNAc
# In short: as §1
# [18] = target: Gal(b1-4)GlcNAc(b1-6)[Gal(b1-4)GlcNAc(b1-3)]GalNAc
# In short: as §1
# [19] = target: Gal(b1-4)GlcNAc6P
# In short: as §1
# [20] = target: Gal(b1-6)Gal
# In short: as §1
# [21] = target: Gal3S(b1-3)GalNAc
# In short: as §1
# [22] = target: Gal3S(b1-3)GlcNAc
# In short: as §1
# [23] = target: Gal3S(b1-3)[Fuc(a1-4)]GlcNAc
# In short: as §1
# [24] = target: Gal3S(b1-4)Glc
# In short: as §1
# [25] = target: Gal3S(b1-4)Glc6S
# In short: as §1
# [26] = target: Gal3S(b1-4)GlcNAc
# In short: as §1
# [27] = target: Gal3S(b1-4)[Fuc(a1-3)]Glc6S
# In short: as §1
# [28] = target: Gal3S(b1-4)[Fuc(a1-3)]GlcNAc
# In short: as §1
# [29] = target: Gal3S(b1-4)[Fuc(a1-3)]GlcNAc6S
# In short: as §1
# [30] = target: Gal3S4S(b1-4)GlcNAc
# In short: as §1
# [31] = target: Gal3S6S(b1-4)GlcNAc
# In short: as §1
# [32] = target: Gal3S6S(b1-4)GlcNAc6S
# In short: as §1
# [33] = target: Gal4S(b1-4)GlcNAc
# In short: as §1
# [34] = target: Gal4S6S(b1-4)GlcNAc
# In short: as §1
# [35] = target: Gal6P(b1-4)GlcNAc
# In short: as §1
# [36] = target: Gal6S(b1-3)GlcNAc
# In short: as §1
# [37] = target: Gal6S(b1-3)GlcNAc6S
# In short: as §1
# [38] = target: Gal6S(b1-4)Glc
# In short: as §1
binder,measurement,setting,value
Cohesin-hDECTIN-1 (Homo sapiens) (protein) LDITSHHHHHHDDLDAVRIKVDTVNAKPGDTVRIPVRFSGIPSKGIANCDFVYSYDPNVLEIIEIEPGDIIVDPNPDKSFDTAVYPDRKIIVFLFAEDSGTGAYAITKDGVFATIVAKVKEGAPNGLSVIKFVEVGGFANNDLVEQKTQFFDGGVNVGDTTEPATPTTPVTTPTTTDDLDAASSSPCPPNWIIYEKSCYLFSMSLNSWDGSKRQCWQLGSNLLKIDSSNELGFIVKQVSSQPDNSFWIGLSRPQTEVPWLWEDGSTFSSNLFQIRTTATQENPSPNCVWIHVSVIYDQLCSVPSYSICEKKFM,glycan array binding signal (z-score),[1],1.23
same,glycan array binding signal (z-score),[2],0.658
same,glycan array binding signal (z-score),[3],0.502
same,glycan array binding signal (z-score),[4],0.463
same,glycan array binding signal (z-score),[5],0.788
same,glycan array binding signal (z-score),[6],-0.346
same,glycan array binding signal (z-score),[7],-0.199
same,glycan array binding signal (z-score),[8],-0.226
same,glycan array binding signal (z-score),[9],-0.192
same,glycan array binding signal (z-score),[10],-0.306
same,glycan array binding signal (z-score),[11],-0.418
same,glycan array binding signal (z-score),[12],-0.37
same,glycan array binding signal (z-score),[13],-0.5
same,glycan array binding signal (z-score),[14],-0.258
same,glycan array binding signal (z-score),[15],-0.034
same,glycan array binding signal (z-score),[16],2.15
same,glycan array binding signal (z-score),[17],-0.138
same,glycan array binding signal (z-score),[18],-0.242
same,glycan array binding signal (z-score),[19],-0.293
same,glycan array binding signal (z-score),[20],-0.263
same,glycan array binding signal (z-score),[21],-0.147
same,glycan array binding signal (z-score),[22],0.063
same,glycan array binding signal (z-score),[23],-0.091
same,glycan array binding signal (z-score),[24],0.507
same,glycan array binding signal (z-score),[25],0.292
same,glycan array binding signal (z-score),[26],-0.109
same,glycan array binding signal (z-score),[27],-0.293
same,glycan array binding signal (z-score),[28],-0.548
same,glycan array binding signal (z-score),[29],1.08
same,glycan array binding signal (z-score),[30],-0.16
same,glycan array binding signal (z-score),[31],-0.079
same,glycan array binding signal (z-score),[32],0.727
same,glycan array binding signal (z-score),[33],-0.432
same,glycan array binding signal (z-score),[34],0.157
same,glycan array binding signal (z-score),[35],-0.218
same,glycan array binding signal (z-score),[36],-0.197
same,glycan array binding signal (z-score),[37],1.2
same,glycan array binding signal (z-score),[38],0.119
